Data published in patent publication US20090202429A1.

Biological target: human platelet glycoprotein Ib alpha (GPIb alpha), on human platelets (human) (UniProt P07359)
Experiment: cell-based or functional assay

Sequence of UniProt P07359 (P07359 17-652): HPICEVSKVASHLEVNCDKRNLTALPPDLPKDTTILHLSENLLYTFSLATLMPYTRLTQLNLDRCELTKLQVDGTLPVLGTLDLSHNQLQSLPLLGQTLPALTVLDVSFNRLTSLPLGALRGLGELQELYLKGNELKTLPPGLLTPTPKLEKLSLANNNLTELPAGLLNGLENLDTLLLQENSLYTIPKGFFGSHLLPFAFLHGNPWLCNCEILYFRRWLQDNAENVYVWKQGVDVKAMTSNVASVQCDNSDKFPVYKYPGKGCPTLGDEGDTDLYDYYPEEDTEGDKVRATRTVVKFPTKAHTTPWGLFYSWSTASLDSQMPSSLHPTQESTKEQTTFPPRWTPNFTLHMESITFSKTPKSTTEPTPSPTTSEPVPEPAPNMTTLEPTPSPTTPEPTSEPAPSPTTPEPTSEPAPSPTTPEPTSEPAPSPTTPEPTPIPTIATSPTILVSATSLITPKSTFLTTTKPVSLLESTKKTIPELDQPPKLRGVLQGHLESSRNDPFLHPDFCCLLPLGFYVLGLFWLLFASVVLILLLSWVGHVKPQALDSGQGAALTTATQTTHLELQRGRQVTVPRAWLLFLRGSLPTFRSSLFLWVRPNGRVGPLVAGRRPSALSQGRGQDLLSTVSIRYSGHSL

translocation velocity of human platelets on immobilized plasma VWF: 3.2 µm/sec
Substance: human plasma VWF (purified from or captured out of human plasma) (a stretch of the chain, sequence not shown) (ligand)
